Experimental findings from PubChem BioAssay AID1347073 (National Center for Advancing Translational Sciences (NCATS), 2019) are described below.

In all, about 45,000 compounds went through this assay and about 200 (0.44%) were called active. Inconclusive results (about 7%) are left out. The call rests on the fitted dose curve; in most records, active means well fitted activation curve with a large enough effect; inconclusive means small, poorly fitted or top-dose-only effect; inactive means no such curve, though single readings can be large or run the other way. This is one part of the list.

A short description of this assay: qHTS of TDP-43 Inhibitors: NCGC Sytravon Library Screen. Further: 0% is about no effect; nearly all actives have a fitted effect of over 55% in size. The conditions noted are these: yeast TDP-43 toxicity rescue, BacTiter-Glo growth, 24 h; series mostly up to 46.1 µM; growth rescue (activation): at the top concentration. The essentials:
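TDP-43-expressing yeast, pregrown in raffinose, seeded at OD600 0.02 in galactose medium with compound for 24 hr at 30 deg C. Growth read by BacTiter-Glo luminescence, so rescue of toxicity appears as activation.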
As to `Cc1ccccc1-c1noc(CNC(=O)c2ccco2)n1`, the “growth rescue (activation)” value was inactive: 26.3%.

As for `CC(C)[C@H](NC(=O)OCc1ccccc1)C(=O)OCC(=O)c1ccccc1`, the “growth rescue (activation)” value is inactive: 24%.

On to `O=C(CSc1nnc(C2CC2)n1Cc1ccccc1)N1CCNC1=O`, for which the “growth rescue (activation)” value was inactive: 7.6%.

Turning to `Cc1ccc(S(=O)(=O)NC(=O)c2cc(C)n(CCCN3CCOCC3)c2C)cc1`, the “growth rescue (activation)” value was inactive: 18%.

For the compound `COc1ccccc1NC(=O)Cn1c(CCC(=O)O)ccc1-c1ccccc1`, the “growth rescue (activation)” value was inactive: -7.76%.

`COc1ccccc1C(=O)NC(=Nc1nc2ccccc2o1)NC(=O)c1ccccc1OC`: the “growth rescue (activation)” value was inactive: 10.1%.

Take `c1ccc(CN2CC[C@@H](Nc3nccn4ccnc34)C2)cc1`: the “growth rescue (activation)” value was inactive: -11.3%.

As for `COCCCn1c(C(=O)NCCN2CCOCC2)cc2c(=O)n3ccccc3nc21`, the “growth rescue (activation)” value was inactive: 9.63%.

On to `CCOC(=O)c1ccc(N/C(=N\S(=O)(=O)c2ccc(F)cc2F)c2ccccc2)cc1`, for which the “growth rescue (activation)” value is inactive: 26.8%.

Consider `Cc1cc(C)c(NC(=O)Cc2ccc(-n3cccc3)cc2)c(C)c1`, for which the “growth rescue (activation)” value is inactive: 15.3%.

As for `CCN(CC)C(=O)C(Sc1nnnn1-c1ccc(O)cc1)c1ccccc1` (stereo not drawn), the “growth rescue (activation)” value is inactive: 11.6%.

In the case of `COc1ccc(C2c3c(C)nn(-c4ccccc4)c3NC(=O)N2c2ccccc2)cc1` (stereo not drawn), the “growth rescue (activation)” value is inactive: 4.79%.

Consider `CCOC(=O)C1=C(O)C(=O)N(Cc2cccnc2)C1c1ccc(OC)cc1` (stereo not drawn), for which the “growth rescue (activation)” value is inactive: -6.96%.

For `O=C(COC(=O)c1cccc(Br)c1)NCc1ccco1`, the “growth rescue (activation)” value was inactive: 18.5%.

As for `COCCN1CCN(C(=O)C2CCC(=O)N(Cc3cccc(C(F)(F)F)c3)C2)CC1` (stereo not drawn), the “growth rescue (activation)” value was inactive: 18.9%.

As for `Cn1c(NCCc2ccncc2)nc2cc(-c3cccc(Cl)c3)sc2c1=O`, the “growth rescue (activation)” value was inactive: 24%.

On to `Cc1cc(N/C(=N/S(=O)(=O)c2ccc(F)cc2)c2ccccc2)n(-c2ccccc2)n1`, for which the “growth rescue (activation)” value was inactive: 3.23%.

For `CCCCc1nc2sc3c(=O)[nH]cnc3c2c2c1CCCC2`, the “growth rescue (activation)” value is inactive: -8.03%.

In the case of `COc1ccc(C(=O)Nc2ccccc2C(=O)N2CCCCCC2)cc1`, the “growth rescue (activation)” value was inactive: 21.4%.

For `O=S(=O)(c1ccccc1)N(CC(O)CN1CCOCC1)c1ccccc1` (stereo not drawn), the “growth rescue (activation)” value was inactive: 8.68%.

As to `CN(C)c1ccc(P(=O)(Nc2ccccc2)N2CCOCC2)c(NC(=O)c2cccs2)c1` (stereo not drawn), the “growth rescue (activation)” value was inactive: -27.4%.

Consider `CS(=O)(=O)c1ccc(NCCN2CCOCC2)c([N+](=O)[O-])c1`, for which the “growth rescue (activation)” value is inactive: 1.68%.

In the case of `O=C(c1cccc([N+](=O)[O-])c1)c1ccc2[nH]c(=O)[nH]c2c1`, the “growth rescue (activation)” value is inactive: 0.927%.

Take `Cc1cc(C)n(C(C)CNC(=O)c2ccc3c(c2)OCO3)n1` (stereo not drawn): the “growth rescue (activation)” value was inactive: 5.64%.

Regarding `Cc1ccc(N2C(=O)CCC(C(=O)O)C2c2cccs2)cc1` (stereo not drawn), the “growth rescue (activation)” value is inactive: -6.99%.

With `COc1ccc(S(=O)(=O)Nc2ccccn2)cc1C(=O)Nc1ccccc1`, the “growth rescue (activation)” value is inactive: 0.927%.

For the compound `Cc1ccc2nc(SC(C)C(=O)NC3CCCc4ccccc43)[nH]c2c1` (stereo not drawn), the “growth rescue (activation)” value is inactive: 32.3%.

Regarding `Cn1cccc1C(=O)OCC(=O)N1CCN(c2ccccc2)CC1`, the “growth rescue (activation)” value was inactive: 9.25%.

In the case of `CCC(=O)Nc1cccc2cccnc12`, the “growth rescue (activation)” value is inactive: -12.7%.

`COc1ccc2nc(C)cc(SCC(=O)OC(C)C)c2c1`: the “growth rescue (activation)” value is inactive: -13.6%.

`CCc1ccc2c(CN3CCC(C(=O)OC)CC3)cc(=O)oc2c1`: the “growth rescue (activation)” value was inactive: 3.85%.

Turning to `CCc1nnc(NC(=O)C2CCN(S(=O)(=O)Cc3ccccc3)CC2)s1`, the “growth rescue (activation)” value was inactive: 29.7%.

Turning to `Cc1cc(C)nc(NN=CC2=C(N3CCOCC3)/C(=C/c3ccc(Cl)cc3)CC2)n1`, the “growth rescue (activation)” value is inactive: 1.11%.

`COc1ccccc1-c1nc(S(=O)(=O)c2ccccc2)c(N2CCCCC2)o1`: the “growth rescue (activation)” value is inactive: -5.57%.

`O=C(NC1CCN(C(=O)Nc2ccc(F)cc2)CC1)c1ccccc1F`: the “growth rescue (activation)” value is inactive: 7.64%.

`O=C(CSc1nc2ccc(Cl)cc2[nH]1)NCc1ccco1`: the “growth rescue (activation)” value is inactive: -11.6%.

`COc1ccc(Nc2nnc(SCC(=O)Nc3ccc4[nH]c(=O)[nH]c4c3)s2)cc1`: the “growth rescue (activation)” value was inactive: -4.94%.

Turning to `S=C(Nc1ccccc1)N1CCN(C/C=C/c2ccccc2)CC1`, the “growth rescue (activation)” value is inactive: 1.1%.

Take `CC(=O)Nc1ccc(/C=N/NC(=O)c2cccc(S(=O)(=O)N3CCOCC3)c2)cc1`: the “growth rescue (activation)” value is inactive: -19%.

As for `Cc1ccc(NC2Sc3ccccc3NC2=O)cc1` (stereo not drawn), the “growth rescue (activation)” value was inactive: 15.8%.

Turning to `CC1(C(=O)NS(=O)(=O)c2cccs2)CCN1C(=O)CC1CCCCC1` (stereo not drawn), the “growth rescue (activation)” value was inactive: -17.5%.

`O=C(c1ccncc1)N(c1ccc2oc3c(c2c1)CCCC3)S(=O)(=O)c1cccc([N+](=O)[O-])c1`: the “growth rescue (activation)” value is inactive: 32.5%.

On to `CC1CCCCC12NC(=O)N(CC(=O)NNC(=O)c1ccc(Br)cc1)C2=O` (stereo not drawn), for which the “growth rescue (activation)” value is inactive: -5.89%.

Turning to `NC(c1csc(NC(=O)Nc2ccc(OC(F)(F)F)cc2)n1)C1CCCCC1` (stereo not drawn), the “growth rescue (activation)” value is inactive: 9.39%.

For the compound `CC(=O)c1sc(NC(=O)c2cc(-c3ccccc3)nn2-c2ccccc2)nc1C`, the “growth rescue (activation)” value was inactive: 9.35%.

As for `Cn1cnc([N+](=O)[O-])c1Oc1ccccc1`, the “growth rescue (activation)” value was inactive: 3.45%.

Regarding `COc1ccc(/C=N/NC(=O)c2[nH]c3ccc(C)cc3c2-c2ccccc2)c(C(=O)O)c1OC`, the “growth rescue (activation)” value was inactive: 4.87%.

As for `CC(=O)Nc1ccc(S(=O)(=O)NCCC(=O)NC2CCCCCC2)cc1`, the “growth rescue (activation)” value was inactive: 6.54%.

As to `C/C(=N/NC(=O)CSc1nc2ccccc2n1C)c1ccc(O)cc1`, the “growth rescue (activation)” value is inactive: -2.68%.

Consider `COc1ccc(-c2ccc(SCC(=O)NC3CCCCC3)nn2)cc1`, for which the “growth rescue (activation)” value was inactive: -0.708%.

Turning to `Oc1ccccc1CN1CCC(C(O)(c2ccccc2)c2ccccc2)CC1`, the “growth rescue (activation)” value is inactive: 5.71%.

Take `Cc1cc(C)c(C#N)c(Oc2ccc(F)cc2)n1`: the “growth rescue (activation)” value is inactive: 14.8%.

For `COc1ccccc1C(=O)Nc1ccc(S(=O)(=O)Nc2cnc3ccccc3n2)cc1`, the “growth rescue (activation)” value was inactive: -6.48%.
